According to the RNAGym collection of RNA variant scans (doi:10.7554/elife.90254):
Read counts are not given, so values of variants with three or more changes are uncertain.

B1: LINE1-mini (parent)
chain: GGCAGAGCUCAACACAGCGUGGCAAAGUGGCUGUGGCUAGACUGCC

Variants of: B1
Assay: self-cleavage, relative activity (ratio to wild type); higher = more cleavage; in vitro, sequencing; the parent is a self-cleaving ribozyme
In the case of GGCAGAGCUUCACACAGCGUGGCAAAGUGGCUGUGGCUAGACUUCC [C10U A11C G44U], the self-cleavage is reported as 0.01. Work on GGCAGACCGCAACAACGCGUGUCAAAGUGGCUGUGGCCAGACUGCU [G7C U9G C15A A16C G22U U38C C46U] yielded a self-cleavage of 0.01. Work on GGCAGAGCUCAACACAGCGCGGCAAGGUGGCUGUGUCUAGACUGUC [U20C A26G G36U C45U] yielded a self-cleavage of 0.04. For GGCAGAGCCCAACACAGCGUGGCAAACUGUCUGUGGCUAGACUGCC [U9C G27C G30U], the self-cleavage was 0.03. In the case of GGCGGAGCUCAAAACAGCGAGGCAAAGUGGCUGCGGCUAGGCUGCA [A4G C13A U20A U34C A41G C46A], the self-cleavage is reported as 0.03. GGCAGAGCUCGACAUAGCGUGGCAAAGUGGCUGUUGCUAGACUGUC [A11G C15U G35U C45U] showed a self-cleavage of 0.02. Variant GGCAAAGCACAACACAGGGUGGCAAAGUGGCUGUGGCUAGACUGCA [G5A U9A C18G C46A] has a self-cleavage of 0.1. In the case of GGCAGAGCUCAACACAGCGUGUCCAAGUGGCUGUGGCGAGACUGCC [G22U A24C U38G], the self-cleavage is reported as 0.02. GGCAGAGCUAAAAACAGCGUGGCAAAGUGGCUGUGGCUGGACUGCC [C10A C13A A39G] gave a self-cleavage of 0.03. In the case of GGCAGAGCUCAACACAGCGUGUCAAAGUGGCUUUGGCUAGACAGCC [G22U G33U U43A], the self-cleavage is reported as 0.04. GGCAUAGCUCAAUACAGCGUGGCAAAGUUGCUGUGGCUAGACUGCC [G5U C13U G29U] showed a self-cleavage of 0.08. Work on GGCAGAUCUCAACACAGCGUGGCAAUGUGGCUGUGCCUAGACUUCC [G7U A26U G36C G44U] yielded a self-cleavage of 0.06. With GGCAGAGCUCAACACGGCGUGGCAAAGUGGAUGUGGCUAGACUGCU [A16G C31A C46U] the self-cleavage was 0.06. GGCAGAGCUCUACACAGCGUGGCAAAGUGUCUCUGGCUAGACUGCC [A11U G30U G33C] gave a self-cleavage of 0.02. Work on GGCAGAGCUCAAGACACCGUGGCAAAGUGGCUCUGGCUAGACUGCC [C13G G17C G33C] yielded a self-cleavage of 0.04. In the case of GGCAGAGCUCAACACAGAUUGGCAAAGUGGAUGUGGCGAGACUGCC [C18A G19U C31A U38G], the self-cleavage is reported as 0. GGCAGAGCUUAACACAGCGCGGCAAAGUGGCUGAGGCUAGACUGCC [C10U U20C U34A] showed a self-cleavage of 0.08. In the case of GGCAGAGCUCAACACAGCGUGGAAGAGUCGCUGUGGCUGGACUGCC [C23A A25G G29C A39G], the self-cleavage is reported as 0.17. Work on UGCAGAGCUCAACACACAGUGGCAAAGUGGCACUGGCGAGACUGCC [G1U G17C C18A U32A G33C U38G] yielded a self-cleavage of 0. Work on GCCAGAGCUAUACACAGCGUGGGAAAGUGGCUGUGGUUAGACUGCC [G2C C10A A11U C23G C37U] yielded a self-cleavage of 0. In the case of GGCAGAGGUCAACGCAGCGUGGCAAAGUGGCUCUGGUGAGACAGCC [C8G A14G G33C C37U U38G U43A], the self-cleavage is reported as 0.03. Variant GGCAGAGCUCAACACAGCGUGGAAGAGUGGCUGUGGCUAGACUGCU [C23A A25G C46U] has a self-cleavage of 0.49. GGCAGAGCUCAACACAGCGUGGCAAAGCGGCUGUGGCUAGACUGUG [U28C C45U C46G] showed a self-cleavage of 0.65. For GGCAGAGCAGAACAGAGCUUGGCAAAGUGGCUGUGGCAAGACUGCC [U9A C10G C15G G19U U38A], the self-cleavage was 0.02. Variant GGCAGAGUUCAACACACCGUGGCAAAGUGGCUGUGGCUAGAAUGCC [C8U G17C C42A] has a self-cleavage of 0.03. With GGCAGAGCUCAACUCAGCUUGGCAAAGUGGCUGUGCCUAGCCUGCC [A14U G19U G36C A41C] the self-cleavage was 0.1. GUCAGAGCUCAACACAGCGUGGCAAAGUGGGUGUGCCUAGACUGCU [G2U C31G G36C C46U] gave a self-cleavage of 0.02. Work on GGCAGAGCACAACACAGUGUGGCAAACUGGCUGUGGCUAGACUGCC [U9A C18U G27C] yielded a self-cleavage of 0.12. GGCAGAGGUCAACACAUCGUGGCAAAGUGGAUGUGGCUAGAGUGCC [C8G G17U C31A C42G] gave a self-cleavage of 0.1. Work on GGCAUAGAUCAACACAGCGUGGCAAAGUGGCUGUGGCUAGACUGCU [G5U C8A C46U] yielded a self-cleavage of 0.26. GGCAGAGCUCAACAGAGCGUGGCCAAGUGGCUGUGGUGAGACUGCC [C15G A24C C37U U38G] showed a self-cleavage of 0.02. For GGCAGAGCUCAACAAAGCGUGGCAAGGUUGCUGAGGCUAUACUGCC [C15A A26G G29U U34A G40U], the self-cleavage was 0.02. Variant GGCAGCUCUCAACACAGCGUGGCAUAGUGGCUGUGCCUAGACUGCC [A6C G7U A25U G36C] has a self-cleavage of 0.1. Variant GGCAGAGGUCAAGACAGCGUGGCAAAGUGGCUGUGGCUAGGAUGCC [C8G C13G A41G C42A] has a self-cleavage of 0.01. GCCAGAGCUCAACACAGCGUGACAAAGUGGCUGUGGGUAGACUAAC [G2C G22A C37G G44A C45A] gave a self-cleavage of 0.01. AGCAGAGCUCCACCCAGCGUGGCAAAGUGGCUGUGGCUACACUGCC [G1A A11C A14C G40C] gave a self-cleavage of 0.03. For GGCAGCGCUCAGAACAGCGUGGCAAAGUGGCUGUGGCUAGACUUCC [A6C A12G C13A G44U], the self-cleavage was 0. In the case of GGCAGAGCUCAACACAGCGUGGCAAAGUGCCUGUGGCGUGACUGAC [G30C U38G A39U C45A], the self-cleavage is reported as 0.16. Variant UGCAGAGAUCAACACAGCGAGGCCAAGUCGCUGUGCCUAGACUGCC [G1U C8A U20A A24C G29C G36C] has a self-cleavage of 0.01. Variant GGCGGAGCUCAGCACAGAGUGGUAAAGUGGCUGUCGCUAGACUGCC [A4G A12G C18A C23U G35C] has a self-cleavage of 0. For GGCAGAGCUCAAUACAGAGUGGCAAAGUGGCUGUGGCUUGACUCCC [C13U C18A A39U G44C], the self-cleavage was 0.02. Variant GCCAGAUCUCAACACAGCGAGGCAAAGUGGCUGUGGCUAGACUGUC [G2C G7U U20A C45U] has a self-cleavage of 2.53. With GGCAGAGCGCAACGCAGCGUGGCAAAGUGGCUGUGGUUAGACUGCC [U9G A14G C37U] the self-cleavage was 0.06. GGCAGGGCUCAACAGAGCGUGGCAACGUGGCUGUGGCUAGACUGCC [A6G C15G A26C] gave a self-cleavage of 0. Work on GGAAGGGCUAAAAACAGCGUGGCAAAGUGGCUGUGGCUAGACUGGC [C3A A6G C10A C13A C45G] yielded a self-cleavage of 0.03. In the case of GGCAGAGCUCAACACAGCGUGGCAAAAUGGCAGUGGGUAGACUGCC [G27A U32A C37G], the self-cleavage is reported as 0.07. For GGCAGAGCUCAACACAGCGUGGCCAAGUUGCUGUGGCUAUACUGCC [A24C G29U G40U], the self-cleavage was 0.1. Variant GGCAGACCUCAACACACCGUGGCAAAGUGGCUGUGGCUAGACUGCU [G7C G17C C46U] has a self-cleavage of 0.08. Work on GGCCGGGCUCAACACAGCGUGGCAAAGGGGCUGUGGCUAGACUGCC [A4C A6G U28G] yielded a self-cleavage of 0. UGCAGAGCUCAACACAGCGUGGCAAAGUGACUUUGGCUAGACUGAC [G1U G30A G33U C45A] gave a self-cleavage of 0.11. CGCAGAGCUCUAGGCAGCGUGGCAAAGUGGCUGUGGCUAGACUGCC [G1C A11U C13G A14G] gave a self-cleavage of 0.04. GGCAGAGAUCAACACAGCGUGCCAAACUGGCUGUGGUUAGACUGCC [C8A G22C G27C C37U] showed a self-cleavage of 0.11. GGCAGAGCUCAACCCAGCGUGGCAAAGUGGCUGUGUCUACACUGCC [A14C G36U G40C] gave a self-cleavage of 0.14. GGCAGAGCUCAACACAGGGUGGCAAUGUGGCUGUGGCUAGACUCCC [C18G A26U G44C] gave a self-cleavage of 0.06. With GGAAGAGCUCCACACAGCGUGGCAAAGUGGAUGUGAGUAGACUGCC [C3A A11C C31A G36A C37G] the self-cleavage was 0.01. For GGCAGAGCUCAACCCAUCGUGGCAAAGUGGCUGUGGCUAGACUGUC [A14C G17U C45U], the self-cleavage was 0.01.
